Here are results for 90 compounds from PMC4336329 (PLoS ONE, 2015).

Each structure is given as a SMILES string. Among all 310,000 compounds or so, about 2,200 (0.71%) showed an effect of 50% or more. Effects have a minus sign here. Some of the results follow.

The target in the experiment is human ether-à-go-go-related gene (hERG) potassium channel (human, UniProt Q12809). Put plainly: primary screen, population patch clamp on CHO cells stably expressing hERG.
Sequence of human ether-à-go-go-related gene (hERG) potassium channel (Q12809 whole entry, looked up): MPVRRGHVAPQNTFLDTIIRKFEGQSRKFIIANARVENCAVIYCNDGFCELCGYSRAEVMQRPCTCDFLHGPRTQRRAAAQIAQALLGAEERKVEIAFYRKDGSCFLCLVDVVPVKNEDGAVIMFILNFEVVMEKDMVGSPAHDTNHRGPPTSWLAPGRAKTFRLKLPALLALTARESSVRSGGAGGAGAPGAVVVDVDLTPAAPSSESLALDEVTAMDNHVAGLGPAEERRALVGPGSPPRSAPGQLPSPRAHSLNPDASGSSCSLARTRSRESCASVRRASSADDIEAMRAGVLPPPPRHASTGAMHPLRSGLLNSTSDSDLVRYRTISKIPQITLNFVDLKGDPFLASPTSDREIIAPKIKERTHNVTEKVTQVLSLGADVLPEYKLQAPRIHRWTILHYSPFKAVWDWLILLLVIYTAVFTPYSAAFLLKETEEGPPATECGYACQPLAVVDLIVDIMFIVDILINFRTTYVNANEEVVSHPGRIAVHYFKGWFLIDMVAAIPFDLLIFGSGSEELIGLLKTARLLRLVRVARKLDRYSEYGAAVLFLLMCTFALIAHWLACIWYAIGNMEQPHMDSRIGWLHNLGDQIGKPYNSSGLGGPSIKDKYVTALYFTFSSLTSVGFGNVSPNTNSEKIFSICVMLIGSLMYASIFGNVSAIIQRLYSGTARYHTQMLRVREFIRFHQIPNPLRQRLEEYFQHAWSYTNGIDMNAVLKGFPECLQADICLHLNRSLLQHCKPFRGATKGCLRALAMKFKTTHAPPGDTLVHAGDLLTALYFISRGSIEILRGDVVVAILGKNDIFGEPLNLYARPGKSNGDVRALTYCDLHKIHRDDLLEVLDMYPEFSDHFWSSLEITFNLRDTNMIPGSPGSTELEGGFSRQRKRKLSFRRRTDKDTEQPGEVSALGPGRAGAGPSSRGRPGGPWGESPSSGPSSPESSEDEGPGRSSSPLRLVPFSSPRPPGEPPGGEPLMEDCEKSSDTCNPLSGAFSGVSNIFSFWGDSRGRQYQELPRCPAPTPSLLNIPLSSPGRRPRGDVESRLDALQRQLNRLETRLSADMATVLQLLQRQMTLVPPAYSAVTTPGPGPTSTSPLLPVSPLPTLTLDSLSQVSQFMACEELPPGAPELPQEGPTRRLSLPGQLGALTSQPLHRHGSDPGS
Turning to `Cc1c(C(=O)NCc2ccccc2)oc2ccc(S(=O)(=O)N3CCC4(CC3)OCCO4)cc12`, the “hERG current change (%, negative = inhibition) at 1uM” value is given as 6.63%. The figure for `CC(=O)Nc1ccc2ccccc2c1` is 8.01%; for `C[n+]1c2n(c3ccccc31)N=C(c1cc(C(C)(C)C)c(O)c(C(C)(C)C)c1)CS2.[Br-]` it is -63.5%. In the case of `COc1ccc(N2CCN(c3nc4c(C)cccn4c(=O)c3/C=C(\C#N)C(N)=O)CC2)cc1`, the “hERG current change (%, negative = inhibition) at 1uM” value is 11.2%.

As to `O=C(Nc1ccccc1F)c1ccc2c(c1)CCN2S(=O)(=O)c1ccccc1`, the “hERG current change (%, negative = inhibition) at 1uM” value was 11.7%. Turning to `CCCOC(=O)C1=C(C)OC23OC(N)=C(C#N)C12C(=O)c1ccccc13` (stereo not drawn), the “hERG current change (%, negative = inhibition) at 1uM” value is reported as -3.5%. With `Cc1ccc(C)c(NC(=O)NNC(=O)c2cc3ccccc3cc2O)c1`, the “hERG current change (%, negative = inhibition) at 1uM” value is -3.83%. The figure for `COc1ccccc1NC(=S)N(Cc1cccnc1)Cc1ccccc1Cl` is -2.97%; for `Cc1ccc(S(=O)(=O)N2CCOC23CCN(C(=O)c2ccc(Cl)cc2Cl)CC3)cc1` it is 10.3%. On to `N#C/C(=C(/O)Cc1cccc2ccccc12)c1nc2ccccc2s1`, for which the “hERG current change (%, negative = inhibition) at 1uM” value was determined as 19.2%. The figure for `CC1CCCCN1C(=O)Cn1cc(C(=O)c2ccco2)c2ccccc21` (stereo not drawn) is 7.18%; for `COc1ccc(C(=O)N2CCN(C3CCCCC3)CC2)c(OC)c1` it is -75%. The figure for `O=C(COc1ccc(/C=N/NC(=O)c2ccncc2)cc1)Nc1ccccc1` is 10.1%; for `COc1ccccc1NC(=O)Cc1noc(CSc2nnc(C)s2)n1` it is 9.48%. The figure for `Cc1ccc(NC(=O)C(C)[n+]2ccccc2)cc1[N+](=O)[O-].[Br-]` (stereo not drawn) is 6.91%; for `CN(C)CCN(C(=O)C1CCN(S(=O)(=O)c2cccs2)CC1)c1nc2c(F)cccc2s1.Cl` it is 13.4%; for `O=C(CCC(=O)OC(C(=O)c1ccccc1)c1ccccc1)Nc1ccccc1` (stereo not drawn) it is 4.13%.

On to `Cc1ccc(/C=C2/NC(=O)N(Cc3ccccc3)C2=O)s1`, for which the “hERG current change (%, negative = inhibition) at 1uM” value is listed as -0.227%. The figure for `Cc1ccc2nc3c(c(Nc4ccccc4)c2c1)CCC3.Cl` is -19.6%; for `CSc1nsc(/C=C/Nc2ccc(Cl)cc2)c1C#N` it is 11.8%; for `Cc1c2cc(O)c(=O)cc-2oc2cc(O)c(O)cc12` it is -1.04%. In the case of `COc1ccc(C(=O)NCc2nnc(SCC(=O)Nc3nnc(C)s3)o2)cc1` it was 4.45%. The figure for `O=Nc1c(O)n(Cc2ccc(Cl)cc2Cl)c2ccccc12` is 7%. For the compound `Cc1cc(Cl)nc(Cl)c1C(=O)NCCc1ccccc1`, the “hERG current change (%, negative = inhibition) at 1uM” value was determined as 4.19%. For `Cc1cccc(NC(=O)c2ccc3[nH]c(=O)c(=O)[nH]c3c2)n1`, the “hERG current change (%, negative = inhibition) at 1uM” value is on record as 5.04%. With `Cc1ccc(N(CC(=O)NCc2ccc3c(c2)OCO3)S(=O)(=O)c2c(C)noc2C)cc1`, the “hERG current change (%, negative = inhibition) at 1uM” value is on record as 9.76%.

In the case of `N#Cc1c(NC(=O)CSC2=NCCS2)sc2c1CCCC2`, the “hERG current change (%, negative = inhibition) at 1uM” value was -0.832%. In the case of `CCOc1ccccc1NC(=S)NCCc1ccc(F)cc1` it was 8.54%.

For the compound `CC(=O)NC(=S)Nc1ccc(NC(=S)NC(=O)c2ccc([N+](=O)[O-])cc2)cc1`, the “hERG current change (%, negative = inhibition) at 1uM” value is on record as 16.5%.

As to `O=C(Nc1ncccn1)c1cc([N+](=O)[O-])cc([N+](=O)[O-])c1`, the “hERG current change (%, negative = inhibition) at 1uM” value turned out to be 1.23%. In the case of `Cc1ccc(Cl)cc1N1CCN(S(=O)(=O)c2c(C)[nH]c(=O)[nH]c2=O)CC1` it was 10.5%; in that of `COc1cccc(-c2cc(N)nn2C(=O)Nc2ccc(Cl)cc2)c1`, -2.38%. In the case of `O=c1c(-c2ccc(Cl)cc2)[n+]([O-])c2ccccc2n1O` it was 14.8%; in that of `CC1Cc2ccccc2N1c1ncnc2c1nnn2Cc1ccccc1` (stereo not drawn), 5.31%.

Consider `CC(=O)N1c2ccc(S(=O)(=O)N3CCC(C(=O)NC(C)c4ccccc4)CC3)cc2CC1C` (stereo not drawn), for which the “hERG current change (%, negative = inhibition) at 1uM” value worked out at 10.1%. In the case of `COc1ccc(-c2n[nH]c3c2CN(C(=O)c2ccccc2)CC3)cc1` it was 7.54%; in that of `CC1CC(NC(=O)N(C)C)N(C)C(=O)N1` (stereo not drawn), 6.47%. For `COc1ccc(NS(=O)(=O)c2ccc3c(c2)oc(=O)n3C)c(OC)c1`, the “hERG current change (%, negative = inhibition) at 1uM” value is 6.32%.

Consider `CCOc1c(Br)cc(C(=O)N2CCCN(C)CC2)cc1OC.Cl`, for which the “hERG current change (%, negative = inhibition) at 1uM” value was determined as 15.8%. On to `CCOc1ccc(NC(=S)N2CCCCCC2)cc1`, for which the “hERG current change (%, negative = inhibition) at 1uM” value came to 0.404%. In the case of `Cc1cc(C)n(C2CC(=O)N(c3ccccc3)C2=O)n1` (stereo not drawn) it was 6.48%; in that of `Cc1ccc(OCCN2CCCC2)cc1.O=C(O)C(=O)O`, 7.22%; in that of `Cc1cc(C)c(OCC(=O)Nc2ccccc2N2CCCCC2)c(C)c1`, 11.9%.

`Cn1[nH]c(=O)c2ccccc2c1=O`: the “hERG current change (%, negative = inhibition) at 1uM” value stood at 3.95%. In the case of `CCCCN(C)CCNS(=O)(=O)c1ccc2c(c1)n(C)c(=O)c(=O)n2C` it was 11.8%; in that of `O=C(CCc1nc2ccccc2c(=O)[nH]1)Nc1cc(Cl)ccc1N1CCCCC1`, -0.403%. The figure for `CCOc1ccc(CCNC(=O)CCc2nnc3ccc(N4CCOCC4)nn23)cc1` is -0.207%. Consider `N=C1C(c2nc3ccccc3[nH]2)=C(O)CN1NC(=O)COc1cccc(F)c1`, for which the “hERG current change (%, negative = inhibition) at 1uM” value is 3.17%.

Take `O=C(NCc1ccco1)c1ccc(NC(=O)C2COc3ccccc3O2)cc1` (stereo not drawn): the “hERG current change (%, negative = inhibition) at 1uM” value was 9.03%. In the case of `CC12CN3CCN(CC(C3)/C1=N\NC(=O)Nc1cccc(Cl)c1)C2`, the “hERG current change (%, negative = inhibition) at 1uM” value was 11%. On to `O=S(=O)(Nc1ncccn1)c1ccc(Nc2ncnc3ccccc23)cc1`, for which the “hERG current change (%, negative = inhibition) at 1uM” value is listed as -8.91%. In the case of `CCc1ccc(NC(=O)c2ccc(S(=O)(=O)NCc3cccnc3)cc2)cc1` it was 9.34%. In the case of `CCOc1cc(/C=N/NC(=O)C(=O)NC)cc(Br)c1O` it was 14.8%; in that of `COC(=O)c1csc(S(=O)(=O)N2CCOCC2)c1OC`, 17.2%; in that of `Cc1c(C)n(CC(O)CN2CCOCC2)c2ccccc12.O=C(O)C(=O)O` (stereo not drawn), -2.16%. The figure for `COc1ccc(OCc2cc(C(=O)N3CCCC(O)C3)no2)c2ccccc12` (stereo not drawn) is 4.89%. Turning to `Nc1nnc(SCCCC(=O)c2ccccc2)s1`, the “hERG current change (%, negative = inhibition) at 1uM” value amounted to 5.23%. As for `C/C(=N\N=C(/N)SC1CC(=O)N(c2ccc(Cl)c(Cl)c2)C1=O)c1cccs1` (stereo not drawn), the “hERG current change (%, negative = inhibition) at 1uM” value was found to be 12.3%. In the case of `COc1ccc(-n2cc(-c3ccccc3)c3c(N4CC(C)OC(C)C4)ncnc32)cc1` (stereo not drawn) it was 13.7%. The figure for `CS(=O)(=O)N(CC(=O)N1CCOCC1)c1ccccc1` is 15.4%; for `CC(Oc1ccc2c(-c3ccccc3)cc(=O)oc2c1)C(=O)NC(Cc1c[nH]c2ccc(O)cc12)C(=O)O` (stereo not drawn) it is 12.1%; for `Cc1ccc2nc(NC(=O)C3CCCN(S(=O)(=O)c4cccnc4)C3)sc2c1` (stereo not drawn) it is 7.66%. Consider `O=C(c1cnn2ccccc12)N1CCN(C2CCCCC2)CC1`, for which the “hERG current change (%, negative = inhibition) at 1uM” value was found to be 3.68%. Take `O=c1cc(O)c(-c2ccccc2)c(Cl)[nH]1`: the “hERG current change (%, negative = inhibition) at 1uM” value is recorded as 11.9%. The figure for `CC(=O)C(Cc1ccc(Cl)nc1)Cc1ccc(Cl)nc1` is 8.48%; for `Fc1ccccc1C1c2cccn2CCN1C(=S)Nc1ccc(Br)cc1` (stereo not drawn) it is 12.6%. The figure for `Cc1cccc(OCCOCCSc2ncccn2)c1` is -3.25%; for `COC(=O)Cn1c2[n+](c3ccccc31)CC(O)CS2.[Br-]` (stereo not drawn) it is 12.3%; for `Cc1cccc(Nc2nc(-c3ccc4c(c3)OCCO4)cs2)c1` it is 0.816%. In the case of `CC1=CC(C)(C)N=C(Nc2ccc(C)cc2)S1` it was 9.59%. Take `O=C(CCn1c(=S)[nH]c2ccccc2c1=O)NCCSCc1ccccc1`: the “hERG current change (%, negative = inhibition) at 1uM” value is on record as 11.3%. In the case of `CCCCNC(=O)CS(=O)Cc1nc(-c2ccc(C)cc2)oc1C` (stereo not drawn) it was 1.1%. In the case of `COc1cc(/C=N/NC(=O)c2cccc3ccccc23)cc(OC)c1O` it was 13.8%. In the case of `COc1cc(C(=O)Nc2nnc(CC(C)C)s2)c([N+](=O)[O-])cc1OC` it was 14%; in that of `COC(=O)c1cc(OC)c(OC)cc1NC(=O)c1cc(C(C)(C)C)oc1C`, 7.4%; in that of `O=C(NC1CCN(Cc2ccccc2)CC1)c1c(Cl)cccc1Cl`, 5.18%. For the compound `Cc1c(CCC(=O)O)c(=O)oc2cc(OCc3ccccc3Br)ccc12`, the “hERG current change (%, negative = inhibition) at 1uM” value is on record as 13.5%. In the case of `Cc1ccc2c(c1)NC(=O)C(CC(=O)NCc1cccnc1)O2` (stereo not drawn) it was 2.51%; in that of `O=c1c2ccccc2nc2n1CCS2`, 3.12%; in that of `Cc1ccsc1C(=O)NC1CCCN(Cc2ccc(Cl)cc2)C1` (stereo not drawn), 7.38%. As for `CCc1cccc2c1NC1(CCCC1)CC2C.Cl` (stereo not drawn), the “hERG current change (%, negative = inhibition) at 1uM” value came to 15.7%. The figure for `Cc1cc2ncn(N)c2cc1C` is -8.07%; for `c1ccc(COC2CCCN(Cc3nc(-c4cnccn4)no3)C2)nc1` (stereo not drawn) it is 5.9%; for `COC(=O)c1ccc(-c2ccco2)n1Cc1ccccc1Cl` it is 2.96%. The figure for `CCOC(=O)c1nnc(-c2ccc(C)cc2)nc1Oc1ccc(Cl)cc1Cl` is 4.36%; for `O=C(CNC(c1ccccc1)c1ccccc1)Nc1ccc(F)cc1` it is 3.51%; for `Cc1ccc2c(c1)C(c1ccncc1)=NNC(c1ccccc1)=N2` it is 12.7%. The figure for `Cc1ccccc1/C=N/N1CCN(c2ccccc2)CC1` is 0.997%. Regarding `Nc1nc(CN2CCC(Cc3ccccc3)CC2)nc(Nc2ccccc2)n1`, the “hERG current change (%, negative = inhibition) at 1uM” value is recorded as -87.4%. On to `COCCN(C(=O)c1cc(OC)c(OC)c(OC)c1)c1c(N)n(Cc2ccccc2)c(=O)[nH]c1=O`, for which the “hERG current change (%, negative = inhibition) at 1uM” value was 21.4%.
